24 compounds from ChEMBL document CHEMBL5606460, “ASAP - DENV-2 NS2B-NS3 protease fluorescence single point” (2024) can be followed below.

The campaign covered roughly 2,000 compounds. About 110 (5.5%) showed an effect of 50% or more. The list shows a part of the results. Residues, ends and D or L forms follow the SMILES beside them. *: point of attachment. pNA = O=[N+]([O-])c1ccc(N*)cc1

The test addresses Genome polyprotein (dengue virus type 2) (UniProt P29990).
Setting [1] is: Thailand/16681/1984, Concentration 25.0 uM, Number of replicates 1.0.

With `NC(=O)c1ccccc1NS(=O)(=O)c1ccc(Oc2ccccc2Cl)cc1`, the inhibition turned out to be 5.67% (Thailand/16681/1984, Concentration 49.5 uM, Number of replicates 2.0, Standard deviation 0.6673279112123895 %); 38.8% (Thailand/16681/1984, Concentration 99.01 uM, Number of replicates 2.0, Standard deviation 2.0636931261780913 %); 81.3% (Thailand/16681/1984, Concentration 198.0 uM, Number of replicates 2.0, Standard deviation 0.3870011295715193 %).
Turning to `Cn1cc(NC(=O)c2ccccc2C(F)(F)F)c(-c2ccc(CO)cc2)n1`, the inhibition runs as follows: (Thailand/16681/1984, Concentration 49.5 uM, Number of replicates 2.0, Standard deviation 2.3161186941047496 %) -4.04%; (Thailand/16681/1984, Concentration 99.01 uM, Number of replicates 2.0, Standard deviation 3.5021876776391307 %) -2.8%; (Thailand/16681/1984, Concentration 198.0 uM, Number of replicates 2.0, Standard deviation 4.667974048773386 %) -3.05%.
With `CSCC[C@H](N)C(=O)N1CCC[C@H]1C(=O)Nc1ccc([N+](=O)[O-])cc1` (H-Met-Pro-pNA), the inhibition runs as follows: (Thailand/16681/1984, Concentration 49.5 uM, Number of replicates 2.0, Standard deviation 0.9447421770337631 %) 6.96%; (Thailand/16681/1984, Concentration 99.01 uM, Number of replicates 2.0, Standard deviation 0.9399016957759839 %) 14.5%; (Thailand/16681/1984, Concentration 198.0 uM, Number of replicates 2.0, Standard deviation 0.15884978616361917 %) 27.1%.
On to `Cc1ccccc1-c1noc(C)c1C(=O)N1CCC(n2cc(CO)nn2)CC1`, for which the inhibition (Thailand/16681/1984, Concentration 49.5 uM, Number of replicates 2.0, Standard deviation 2.30419273755641 %) was -0.938%; the inhibition (Thailand/16681/1984, Concentration 99.01 uM, Number of replicates 2.0, Standard deviation 2.46249596338854 %) was -1.41%; the inhibition (Thailand/16681/1984, Concentration 198.0 uM, Number of replicates 2.0, Standard deviation 2.8430635029754168 %) is -1.49%.
As to `O=Cc1ccc(N2CCC(C(=O)N3CCN(c4ncccc4[N+](=O)[O-])CC3)CC2)cc1`, under setting [1], the inhibition turned out to be 14.8%.
In the case of `NC(=O)c1c(NC(=O)C2CCN(c3ccc(C=O)cc3)CC2)sc2c1CCCC2`, under setting [1], the inhibition was found to be 38.6%.
On to `C[C@H](NC(=O)C1CCN(c2ccc(C=O)cc2)CC1)c1cccc2ccccc12`, for which, under setting [1], the inhibition was 4.86%.
For the compound `CC(C)Cn1cccc(C(=O)Nc2ccncc2)c1=O`, the inhibition by setting is: (Thailand/16681/1984, Concentration 49.5 uM, Number of replicates 2.0, Standard deviation 1.6949837288603 %) 4.6%; (Thailand/16681/1984, Concentration 99.01 uM, Number of replicates 2.0, Standard deviation 0.80587134576346 %) 8.75%; (Thailand/16681/1984, Concentration 198.0 uM, Number of replicates 2.0, Standard deviation 0.4281674737986559 %) 16%.
On to `Cc1cc(CO)c2cccc(Cc3ccccc3C(=O)N[C@@H](C)C(N)=O)c2n1`, for which the inhibition by setting is: (Thailand/16681/1984, Concentration 49.95 uM, Number of replicates 2.0, Standard deviation 0.6000743957777985 %) -0.871%; (Thailand/16681/1984, Concentration 99.9 uM, Number of replicates 2.0, Standard deviation 0.19044272663259726 %) 7.93%.
For the compound `O=Cc1ccc(N2CCC(C(=O)Nc3cccc4ccc(O)cc34)CC2)cc1`, the inhibition under setting [1] was 35.2%.
Same read-out and setting: as for `O=Cc1ccc(N2CCC(C(=O)N3CC(Oc4ccc(Cl)cc4)C3)CC2)cc1`, the figure is 0.197%.
For the compound `O=Cc1ccc(N2CCC(C(=O)NCc3ccc(Cl)cc3F)CC2)cc1`, the inhibition under setting [1] is 9.63%.
As for `CCn1ccnc(N[C@@H](Cc2c[nH]c3ccccc23)C(=O)NCc2ccccc2)c1=O`, the inhibition worked out at 1.31% (Thailand/16681/1984, Concentration 49.5 uM, Number of replicates 2.0, Standard deviation 0.13681414935666844 %); 2.85% (Thailand/16681/1984, Concentration 99.01 uM, Number of replicates 2.0, Standard deviation 0.09232570623620616 %); 6.39% (Thailand/16681/1984, Concentration 198.0 uM, Number of replicates 2.0, Standard deviation 0.24588269116382727 %).
`O=Cc1ccc(N2CCC(C(=O)N3CCc4cc(Cl)ccc4C3)CC2)cc1`: under setting [1], the inhibition was 9.95%.
On to `COc1cc(COCc2c(F)cccc2F)nc(N2CCNCC2)n1`, for which the inhibition was -0.373% (Thailand/16681/1984, Concentration 49.5 uM, Number of replicates 2.0, Standard deviation 2.0165327414494323 %); -0.319% (Thailand/16681/1984, Concentration 99.01 uM, Number of replicates 2.0, Standard deviation 2.63299741441039 %); 0.43% (Thailand/16681/1984, Concentration 198.0 uM, Number of replicates 2.0, Standard deviation 2.6878044175706832 %).
As for `CC(C)[C@H](NC(=O)C1CCN(c2ccc(C=O)cc2)CC1)c1ccccn1`, the inhibition under setting [1] is 12.8%.
Turning to `COc1ncc(Br)cc1NC(=O)C1CCN(c2ccc(C=O)cc2)CC1`, the inhibition under setting [1] was 12.1%.
As for `COC(=O)c1cncc(NC(=O)c2cc(OC)nc(N3CCNCC3)n2)c1`, the inhibition (Thailand/16681/1984, Concentration 49.5 uM, Number of replicates 2.0, Standard deviation 2.371083495065868 %) is -3.19%; the inhibition (Thailand/16681/1984, Concentration 99.01 uM, Number of replicates 2.0, Standard deviation 3.1714143372962753 %) was -2.14%; the inhibition (Thailand/16681/1984, Concentration 198.0 uM, Number of replicates 2.0, Standard deviation 2.985770498250333 %) came out at 0.713%.
As for `CC(C)n1cnnc1CCNC(=O)C1CCN(c2ccc(C=O)cc2)CC1`, the inhibition under setting [1] is 13.3%.
Same read-out and setting: the figure for `CCC(CC)N1CCN(C(=O)C2CCN(c3ccc(C=O)cc3)CC2)CC1` is 11.3%.
Take `CCCOc1cccc(CCNC(=O)C2CCN(c3ccc(C=O)cc3)CC2)c1`: under setting [1], the inhibition was determined as 13.4%.
For `COc1ccc(S(=O)(=O)Nc2ccc(C(=O)O)cc2)cc1`, the inhibition (Thailand/16681/1984, Concentration 49.5 uM, Number of replicates 2.0, Standard deviation 0.5608325188005179 %) is -0.09%; the inhibition (Thailand/16681/1984, Concentration 99.01 uM, Number of replicates 2.0, Standard deviation 0.8121146005802272 %) turned out to be 1.54%; the inhibition (Thailand/16681/1984, Concentration 198.0 uM, Number of replicates 2.0, Standard deviation 0.1170568025928226 %) was found to be 2.41%.
`COc1cc(CS(=O)(=O)C[C@H]2CCCO2)nc(N2CCNCC2)n1`: the inhibition reads like this: (Thailand/16681/1984, Concentration 49.5 uM, Number of replicates 2.0, Standard deviation 0.1164714250138548 %) -0.916%; (Thailand/16681/1984, Concentration 99.01 uM, Number of replicates 2.0, Standard deviation 0.21498230770958018 %) -1.32%; (Thailand/16681/1984, Concentration 198.0 uM, Number of replicates 2.0, Standard deviation 0.7717593724526828 %) -1.59%.
As for `COc1ccc(S(=O)(=O)N[C@H]2CC[C@@H](C(=O)Nc3nc4ccccc4s3)CC2)cc1`, the inhibition (Thailand/16681/1984, Concentration 49.5 uM, Number of replicates 2.0, Standard deviation 0.7840545353939778 %) was -2%; the inhibition (Thailand/16681/1984, Concentration 99.01 uM, Number of replicates 2.0, Standard deviation 0.5713843195000082 %) turned out to be 0.764%; the inhibition (Thailand/16681/1984, Concentration 198.0 uM, Number of replicates 2.0, Standard deviation 0.49249915896022917 %) amounted to 0.948%.

For orientation: inhibition means the drop in the measured response relative to a control, in per cent.
